The values below come from the supplement of paper PMC12217912.

First the molecules themselves.
B1: TEV protease; numbered along this chain (parent)
chain: MGESLFKGPRDYNPISSSICHLTNESDGHTTSLYGIGFGPFIITNKHLFRRNNGTLVVQSLHGVFKVKDTTTLQQHLVDGRDMIIIRMPKDFPPFPQKLKFREPQREERICLVTTNFQTKSMSSMVSDTSCTFPSGDGIFWKHWIQTKDGQCGSPLVSTRDGFIVGIHSASNFTNTNNYFTSVPKNFMELLTNQEAQQWVSGWRLNADSVLWGGHKVFMVKPEEPFQPVKEATQL

The other results are listed elsewhere or left out. The full chains were built here from the parent and the listed change. Inactive controls read about 0.05.

The assay covers variants of B1. The assay can be described thus: raw area under fraction-flipped curve 0-4 h after induction (AUC4h, not background-subtracted), DNA-recorder readout of cleavage of the substrate (dimensionless); higher = more cleavage of the substrate by the protease variant. The note with it: temperature: 34 °C; time window: 0-4 h after rhamnose induction. The method, then:
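In vivo DNA recorder in E. coli TOP10(DE3) ΔrhaA at 34 °C. Each TEVp single-site mutant (parent TEVp 0) is paired with a single-site variant of the 7-mer TEVs (canonical ENLYFQ|S). The substrate sits between flexible linkers in a Bxb1-sfGFP-TEVs-SsrA fusion, so cleavage stabilises Bxb1 and speeds flipping of a recombination array, read by NGS. The value is the raw area under the fraction-flipped curve over 0-4 h after rhamnose induction (AUC4h), with ≥20 reads per time point. It is not background-subtracted; inactive controls average about 0.047.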
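Further: Bxb1 expression induced with 0.2% (w/v) L-rhamnose at OD600 near 0.5, cultures sampled hourly, flipped fraction per protease–substrate barcode pair counted by paired-end Illumina sequencing.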

As to MGESLFKGPRDYNPISSSICHLTNESDGHTTSLYGIGFGPFIITNKHLFRRNNGTLVVQSLHGVFKVKDTTTLQQHLVDGRDMIIIRMPKDFPPFPQKLKFREPQREERICLVTTNFQTKSMSSMVSDTSCTFPSGDGIFWKHWIQTKDGQCGSPLVSTRDGFIVGIHSASNFTNTNNYFTSVPKNFMELLTNQEAQQWVSGWRLNADSVLWGGHKVFGVKPEEPFQPVKEATQL [M219G], the “area with substrate ENLYCQS” value was found to be 0.0841, the “area with substrate ENLYDQS” value was found to be 0.0609, the “area with substrate ENLYEQS” value turned out to be 0.0674 and the “area with substrate ENLYHQS” value is 0.0674. Besides, the “area with substrate ENLYIQS” value worked out at 0.067, the “area with substrate ENLYKQS” value was found to be 0.0529, the “area with substrate ENLYLQS” value amounted to 0.0687 and the “area with substrate ENLYMQS” value was found to be 0.0741. In addition, the “area with substrate ENLYNQS” value worked out at 0.0614, the “area with substrate ENLYPQS” value was 0.0624, the “area with substrate ENLYQQS” value is 0.0745 and the “area with substrate ENLYRQS” value is 0.0633. Moreover, the “area with substrate ENLYSQS” value amounted to 0.0656, the “area with substrate ENLYTQS” value was found to be 0.0621, the “area with substrate ENLYVQS” value worked out at 0.0646 and the “area with substrate ENLYWQS” value came to 0.0823. The “area with substrate ENLYYQS” value is 0.0604.
As to MGESLFKGPRDYNPISSSICHLTNESDGHTTSLYGIGFGPFIITNKHLFRRNNGTLVVQSLHGVFKVKDTTTLQQHLVDGRDMIIIRMPKDFPPFPQKLKFREPQREERICLVTTNFQTKSMSSMVSDTSCTFPSGDGIFWKHWIQTKDGQCGSPLVSTRDGFIVGIHSASNFTNTNNYFTSVPKNFMELLTTQEAQQWVSGWRLNADSVLWGGHKVFMVKPEEPFQPVKEATQL [N193T], the “area with substrate ENLYCQS” value amounted to 0.0837, the “area with substrate ENLYDQS” value was 0.0829, the “area with substrate ENLYEQS” value was found to be 0.064 and the “area with substrate ENLYHQS” value stood at 0.0905. The “area with substrate ENLYIQS” value was found to be 0.118, the “area with substrate ENLYKQS” value was determined as 0.0636, the “area with substrate ENLYLQS” value is 0.0704 and the “area with substrate ENLYMQS” value is 0.09. The “area with substrate ENLYQQS” value was 0.0641, the “area with substrate ENLYSQS” value is 0.0696, the “area with substrate ENLYVQS” value was found to be 0.105 and the “area with substrate ENLYWQS” value turned out to be 0.0837.
Take MGESLFKGPRDYNPISSSICHLTNESDGHTTSLYGIGFGPFIITNKHLFRRNNGTLVVQSLHGVFKVKDTTTLQQHLVDGRDMIIIRMPKDFPPFPQKLKFREPQREERICLVTTNFQTKSMSSMVSDTSCTFPSGDGIFWKHWIQTKDGQCGSPLVSTRDGFIVGIHSASNFTNTNNYFTSVPKNFMELLTNQEAQQWVSGWRLNADSCLWGGHKVFMVKPEEPFQPVKEATQL [V210C]: the “area with substrate ENLYCQS” value is 0.115, the “area with substrate ENLYDQS” value is 0.0614, the “area with substrate ENLYEQS” value came to 0.0605 and the “area with substrate ENLYGQS” value amounted to 0.0781. The “area with substrate ENLYHQS” value was found to be 0.0639, the “area with substrate ENLYIQS” value amounted to 0.164, the “area with substrate ENLYKQS” value turned out to be 0.0634 and the “area with substrate ENLYMQS” value was determined as 0.0893. For the same variant, the “area with substrate ENLYNQS” value was found to be 0.072, the “area with substrate ENLYPQS” value was found to be 0.0674, the “area with substrate ENLYQQS” value was 0.0639 and the “area with substrate ENLYRQS” value was 0.0581. Further, the “area with substrate ENLYSQS” value came to 0.0766, the “area with substrate ENLYTQS” value worked out at 0.0956, the “area with substrate ENLYVQS” value stood at 0.122 and the “area with substrate ENLYWQS” value turned out to be 0.0774. For the same variant, the “area with substrate ENLYYQS” value turned out to be 0.0662.
As to MGESLFKGPRDYNPISSSICHLTNESDGHTTSLYGIGFGPFIITNKHLFRRNNGTLVVQSLHGVFKVKDTTTLQQHLVDGRDMIIIRMPKDFPPFPQKLKFREPQREERICLVTTNFQTKSMSSMVSDTSCTFPSGDGIFWKHWIQTKDGQCGSPLVSTRDGFIVGIHSASNFTNTNNYFTSVPKNFMELLTNQEEQQWVSGWRLNADSVLWGGHKVFMVKPEEPFQPVKEATQL [A196E], the “area with substrate ENLYCQS” value turned out to be 0.0954, the “area with substrate ENLYDQS” value turned out to be 0.0612, the “area with substrate ENLYEQS” value stood at 0.0973 and the “area with substrate ENLYGQS” value was 0.0598. Moreover, the “area with substrate ENLYHQS” value was 0.0747, the “area with substrate ENLYKQS” value was 0.0704, the “area with substrate ENLYNQS” value was 0.0679 and the “area with substrate ENLYPQS” value was found to be 0.0597. For the same variant, the “area with substrate ENLYRQS” value was found to be 0.0586, the “area with substrate ENLYSQS” value was found to be 0.0534, the “area with substrate ENLYTQS” value was found to be 0.0717 and the “area with substrate ENLYVQS” value was 0.101. The “area with substrate ENLYWQS” value was found to be 0.0766.
For the variant MGESLFKGPRDYNPISSSICHLTNESDGHTTSLYGIGFGPFIITNKHLFRRNNGTLVVQSLHGVFKVKDTTTLQQHLVDGRDMIIIRMPKDFPPFPQKLKFREPQREERICLVTTNFQTKSMSSMVSDTSCTFPSGDGIFWKHWIQTKDGQCGSPLVSTRDGFIVGIHSASNFTNTNNYFTSVPKNFMELLTNQEAQQWVSGWRLNADSVLWGGHKVFMDKPEEPFQPVKEATQL [V220D], the “area with substrate ENLYCQS” value is 0.0968, the “area with substrate ENLYDQS” value is 0.0644, the “area with substrate ENLYGQS” value was 0.0604 and the “area with substrate ENLYHQS” value was found to be 0.0719. The “area with substrate ENLYIQS” value turned out to be 0.133, the “area with substrate ENLYKQS” value was found to be 0.0634, the “area with substrate ENLYMQS” value worked out at 0.0867 and the “area with substrate ENLYNQS” value was found to be 0.0727. For the same variant, the “area with substrate ENLYQQS” value came out at 0.0613, the “area with substrate ENLYTQS” value was found to be 0.0854, the “area with substrate ENLYWQS” value was 0.13 and the “area with substrate ENLYYQS” value was 0.0712.
As for MGESLFKGPRDYNPISSSICHLTNESDGHTTSLYGIGFGPFIITNKHLFRRNNGTLVVQSLHGVFKVKDTTTLQQHLVDGRDMIIIRMPKDFPPFPQKLKFREPQREERICLVTTNFQTKSMSSMVSDTSCTFPSGDGIFWKHWIQTKDGQCGSPLVSTRDGFIVGIHSASNFTNTNNYFTSVPKNFMELLTNQEAQQWVSGWRLNADSVLWGGHKVFMNKPEEPFQPVKEATQL [V220N], the “area with substrate ENLYCQS” value turned out to be 0.0858, the “area with substrate ENLYDQS” value was determined as 0.0589, the “area with substrate ENLYEQS” value worked out at 0.06 and the “area with substrate ENLYGQS” value stood at 0.0652. In addition, the “area with substrate ENLYHQS” value is 0.0659, the “area with substrate ENLYKQS” value turned out to be 0.0704, the “area with substrate ENLYMQS” value came out at 0.0818 and the “area with substrate ENLYNQS” value worked out at 0.0752. Also, the “area with substrate ENLYQQS” value amounted to 0.0633, the “area with substrate ENLYWQS” value worked out at 0.119 and the “area with substrate ENLYYQS” value was determined as 0.0522.
As to MGESLFKGPRDYNPISSSICHLTNESDGHTTSLYGIGFGPFIITNKHLFRRNNGTLVVQSLHGVFKVKDTTTLQQHLVDGRDMIIIRMPKDFPPFPQKLKFREPQREERICLVTTNFQTKSMSSMVSDTSCTFPSGDGIFWKHWIQTKDGQCGSPLVSTRDGFIVGICSASNFTNTNNYFTSVPKNFMELLTNQEAQQWVSGWRLNADSVLWGGHKVFMVKPEEPFQPVKEATQL [H168C], the “area with substrate ENLYCQS” value came out at 0.0691, the “area with substrate ENLYDQS” value came out at 0.048, the “area with substrate ENLYHQS” value was found to be 0.0504 and the “area with substrate ENLYKQS” value was found to be 0.0542. For the same variant, the “area with substrate ENLYQQS” value was determined as 0.0605, the “area with substrate ENLYSQS” value is 0.0584, the “area with substrate ENLYVQS” value was found to be 0.0616 and the “area with substrate ENLYYQS” value worked out at 0.0632.
In the case of MGESLFKGPRDYNPISSSICHLTNESDGHTTSLYGIGFGPFIITNKHLFRRNNGTLVVQSLHGVFKVKDTTTLQQHLVDGRDMIIIRMPKDFPPFPQKLKFREPQREERICLVTTNFQTKSMSSMVSDTSCTFPSGDGIFWKHWIQTKDGQCGSPLVSTRDGFIVGIHSASNFTNTNNYFTSVPKNFMELLFNQEAQQWVSGWRLNADSVLWGGHKVFMVKPEEPFQPVKEATQL [T192F], the “area with substrate ENLYCQS” value turned out to be 0.0633, the “area with substrate ENLYEQS” value worked out at 0.0539, the “area with substrate ENLYHQS” value is 0.0773 and the “area with substrate ENLYMQS” value stood at 0.0864. Further, the “area with substrate ENLYPQS” value stood at 0.0759, the “area with substrate ENLYRQS” value was 0.0643, the “area with substrate ENLYSQS” value came to 0.0747 and the “area with substrate ENLYVQS” value came to 0.132. The “area with substrate ENLYWQS” value was 0.0523 and the “area with substrate ENLYYQS” value came to 0.0721.
For the variant MGESLFKGPRDYNPISSSICHLTNESDGHTTSLYGIGFGPFIITNKHLFRRNNGTLVVQSLHGVFKVKDTTTLQQHLVDGRDMIIIRMPKDFPPFPQKLKFREPQREERICLVTTNFQTKSMSSMVSDTSCTFPSGDGIFWKHWIQTKDGQCGSPLVSTRYGFIVGIHSASNFTNTNNYFTSVPKNFMELLTNQEAQQWVSGWRLNADSVLWGGHKVFMVKPEEPFQPVKEATQL [D161Y], the “area with substrate ENLYCQS” value worked out at 0.0668, the “area with substrate ENLYDQS” value worked out at 0.0494, the “area with substrate ENLYEQS” value was found to be 0.0578 and the “area with substrate ENLYGQS” value came out at 0.0635. The “area with substrate ENLYIQS” value amounted to 0.0662, the “area with substrate ENLYKQS” value worked out at 0.0615, the “area with substrate ENLYLQS” value amounted to 0.0557 and the “area with substrate ENLYMQS” value was 0.0329. Besides, the “area with substrate ENLYNQS” value was 0.0611, the “area with substrate ENLYPQS” value came to 0.0575, the “area with substrate ENLYQQS” value is 0.0535 and the “area with substrate ENLYRQS” value turned out to be 0.0605. Further, the “area with substrate ENLYTQS” value was determined as 0.0678, the “area with substrate ENLYVQS” value came out at 0.0548 and the “area with substrate ENLYWQS” value worked out at 0.0677.
